Assay results published in the supplement of paper PMC3334620.
The full ranking holds about 33,000 sequences; the median of “E-score (-0.5 to 0.5)” is about -0.012, and the highest 2% start at about 0.29. Some of the results follow.

These sequences were tested against T1, Ybr033w (UniProt P38073) (assay: PBM E-score (8-mer binding enrichment) (E-score (-0.5 to 0.5)); higher = stronger / more preferred TF binding; most listed sequences are background and not binding sites). Conditions: protein concentration: 200 nM; construct: GST-full length.
T1 sequence: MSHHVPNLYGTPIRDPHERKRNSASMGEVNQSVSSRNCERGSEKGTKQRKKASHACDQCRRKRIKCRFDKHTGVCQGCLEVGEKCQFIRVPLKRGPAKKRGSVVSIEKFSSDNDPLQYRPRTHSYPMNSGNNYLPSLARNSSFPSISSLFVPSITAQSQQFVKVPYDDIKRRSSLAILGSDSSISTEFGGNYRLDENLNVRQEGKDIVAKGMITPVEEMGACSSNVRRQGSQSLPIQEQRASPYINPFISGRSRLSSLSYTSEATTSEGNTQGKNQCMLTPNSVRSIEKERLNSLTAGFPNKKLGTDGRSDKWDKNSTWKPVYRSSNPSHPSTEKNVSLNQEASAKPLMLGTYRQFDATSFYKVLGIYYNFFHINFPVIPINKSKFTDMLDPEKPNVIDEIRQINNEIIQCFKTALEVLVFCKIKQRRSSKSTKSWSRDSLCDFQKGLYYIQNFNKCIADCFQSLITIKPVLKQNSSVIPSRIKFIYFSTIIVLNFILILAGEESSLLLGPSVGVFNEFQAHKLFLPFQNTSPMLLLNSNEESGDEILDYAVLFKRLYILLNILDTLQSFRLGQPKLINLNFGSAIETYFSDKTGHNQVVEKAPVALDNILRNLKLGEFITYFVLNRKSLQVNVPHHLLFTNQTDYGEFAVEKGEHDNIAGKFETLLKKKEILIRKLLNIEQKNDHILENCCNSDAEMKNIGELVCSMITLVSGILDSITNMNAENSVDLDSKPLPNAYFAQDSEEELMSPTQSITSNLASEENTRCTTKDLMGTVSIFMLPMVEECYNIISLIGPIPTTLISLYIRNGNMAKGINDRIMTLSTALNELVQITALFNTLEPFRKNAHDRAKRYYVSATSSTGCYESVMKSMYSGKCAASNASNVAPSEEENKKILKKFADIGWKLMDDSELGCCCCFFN
In short: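 Yeast transcription factors carrying a GST tag, as full-length proteins or DNA-binding domains, were produced by PURExpress in vitro transcription/translation. About 100-200 nM protein was applied to universal all-10-mer Agilent arrays, double-stranded by primer extension on fresh or once-stripped slides. Bound protein was detected with fluorescent anti-GST, and scans were normalised with masliner. The Universal PBM Analysis Suite gave each ungapped eight-base word, pooled with its reverse complement, an E-score, a modified Wilcoxon-Mann-Whitney statistic.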

Sequence	PBM E-score
TCATGGGA	-0.186
AGTGAGAC	-0.0339
CTAGGCGC	-0.209
CTGAACCA	-0.0718
TGAATCCA	0.0977
GTCCAAAA	0.122
AATCGTGC	0.137
CAACGAGC	-0.22
AAAAAGTC	0.22
AACGACAT	0.095
TGCAGACA	-0.104
CTTTCAGA	0.0473
AAGGCTGC	-0.0229
ACCAGACA	-0.136
CTAGTCGA	-0.163
GACCATGA	-0.23
CACGGTAC	-0.237
CATTATCC	0.224
AAAGATGG	-0.00628
GCGTTCTA	0.0618
GAGCATGA	-0.17
GAAGTATA	0.136

Sequence	PBM E-score
CCTGCACC	-0.287
TCTTGACA	0.103
ACTAAGTG	0.0969
CGGGCGTA	-0.263
CGGTCTAA	-0.0696
GAGGAGCA	-0.226
ATCGTTTC	0.184
CCAGAACA	0.0782
AAAACTAG	0.0807
GCAAAGCC	-0.293
CGATGTTC	0.0131
GGTCCGGA	0.141
GAACAAGA	0.214
ATTGGTGC	0.0298
GCGGCGCA	-0.192
TAATAATA	0.33
CTATACAA	0.177
CGGAGCGC	-0.216
GTTCTGAA	0.0178
CAGCACCA	-0.169
TAGGCTCA	-0.226
CAGATCCG	-0.0592

Sequence	PBM E-score
AAATAGCC	0.00071
CACAACTG	-0.146
CTTGGAAC	0.139
GGCAGCAC	-0.151
CTCCATGC	-0.0903
CCGATCGG	-0.27
AATCCGCC	0.0486
AAATGCTT	0.0626
ATCCAGAT	0.108
TCAGCACA	0.153
ACGGATGA	0.101
CCCCTTCA	-0.238
ACGTTAGT	0.0756
GGCTAGGA	-0.106
GTTCGGAA	0.316
GCGTACCA	0.00593
AGTGGCGC	-0.16
GGCAGACC	-0.308
GAGTCGGC	-0.163
AGGGTGTG	0.0199
ACCTTCGT	0.0542
CTCTTTCA	0.0712

Sequence	PBM E-score
CGTCAGAA	-0.0873
AACCTGGT	0.0823
ACTAGCCT	0.113
ACACCCCT	-0.111
ACCAGGAA	0.112
CAATCTGA	0.0393
CAGCTCAC	-0.25
CTTTGTCC	0.0971
ACCCCGCC	-0.109
ACCAACAG	-0.0816
CCCGCCCA	-0.153
TAGGCGAA	0.00856
AGGACCTA	0.12
AACAACGA	0.15
CAGGGCGG	-0.228
AATGACAA	0.189
AGGTCACA	-0.181
GCGGTCAC	-0.0802
ACAGAGAG	-0.16
AGCGTCGG	-0.128
TAATACCA	0.18
AACTTCTA	0.178

Sequence	PBM E-score
CCAGTTTA	0.0226
ACGAGACC	0.0956
CGCAGGCG	-0.314
CCTCGTAA	-0.0544
AGCGATAG	-0.186
CCATGTTA	0.0981
AGGTGTGA	-0.0514
AGAGACGG	-0.00835
ATAGCAAC	0.0875
AAGAGGGA	-0.0851
TCGCCGCA	-0.153
CGACGCAA	-0.0543
ACTAGTGG	-0.00318
AGTCTGTC	-0.0266
TCCGGCCA	-0.00525
ATCTCGCC	-0.172
CGCATCAC	-0.019
ATACGTTG	0.0269
TAATTTGA	0.126
CATGTCGA	0.0206
TACTTATA	0.12
